Laboratory results as given in paper PMC4336329 (PLoS ONE, 2015).
Screen size: about 310,000 compounds; about 2,200 (0.71%) showed an effect of 50% or more. The effect is printed as a negative number. This is one part of the list.

Biological target: human ether-à-go-go-related gene (hERG) potassium channel (human, UniProt Q12809)
Experiment: primary screen, population patch clamp on CHO cells stably expressing hERG

human ether-à-go-go-related gene (hERG) potassium channel, sequence (Q12809 whole entry, looked up): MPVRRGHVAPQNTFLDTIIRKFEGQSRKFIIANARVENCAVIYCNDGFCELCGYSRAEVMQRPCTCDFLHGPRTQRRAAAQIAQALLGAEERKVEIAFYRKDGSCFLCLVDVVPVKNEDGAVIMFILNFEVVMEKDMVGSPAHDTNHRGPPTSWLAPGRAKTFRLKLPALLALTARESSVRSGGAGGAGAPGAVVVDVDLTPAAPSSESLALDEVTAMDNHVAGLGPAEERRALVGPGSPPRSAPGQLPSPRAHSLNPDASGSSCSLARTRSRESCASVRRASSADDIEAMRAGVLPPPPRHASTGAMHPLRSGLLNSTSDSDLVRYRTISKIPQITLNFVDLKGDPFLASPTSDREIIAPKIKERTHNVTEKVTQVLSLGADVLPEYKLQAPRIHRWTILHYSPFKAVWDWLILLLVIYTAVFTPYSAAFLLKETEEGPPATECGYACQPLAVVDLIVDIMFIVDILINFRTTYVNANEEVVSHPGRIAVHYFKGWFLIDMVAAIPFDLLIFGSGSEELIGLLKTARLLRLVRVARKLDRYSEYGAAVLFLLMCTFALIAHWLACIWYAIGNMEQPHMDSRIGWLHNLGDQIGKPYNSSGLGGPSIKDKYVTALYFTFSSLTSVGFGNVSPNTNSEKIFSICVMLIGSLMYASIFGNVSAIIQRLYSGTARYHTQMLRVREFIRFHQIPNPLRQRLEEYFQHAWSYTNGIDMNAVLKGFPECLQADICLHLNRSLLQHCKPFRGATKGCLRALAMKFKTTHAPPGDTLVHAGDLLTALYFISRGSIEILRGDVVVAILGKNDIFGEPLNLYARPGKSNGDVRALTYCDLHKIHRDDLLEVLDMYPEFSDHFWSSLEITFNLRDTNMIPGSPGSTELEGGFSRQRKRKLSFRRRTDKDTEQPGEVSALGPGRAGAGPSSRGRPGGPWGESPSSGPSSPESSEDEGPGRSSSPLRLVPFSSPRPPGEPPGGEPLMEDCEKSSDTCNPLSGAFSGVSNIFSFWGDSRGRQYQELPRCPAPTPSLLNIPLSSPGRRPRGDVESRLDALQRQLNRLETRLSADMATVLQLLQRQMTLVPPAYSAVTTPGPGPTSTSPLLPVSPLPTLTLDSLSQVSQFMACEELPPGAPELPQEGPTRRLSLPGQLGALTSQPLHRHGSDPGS

Row | Compound | hERG current change (%, negative = inhibition) at 1uM [%]
1 | Cn1c(=O)c2c(nc(SCc3ccccc3)n2Cc2ccc(Cl)cc2)n(C)c1=O | 10.5
2 | CNC(=O)c1ccc(NC(=O)c2cc(S(=O)(=O)N3CCOCC3)ccc2N2CCCC2)cc1 | 13.5
3 | COc1ccc(/C=C/C(=O)c2ccc3ccccc3c2O)cc1CN1CCOCC1 | 4.2
4 | COC(=O)c1ccc(NC(C)C(=O)OC)c([N+](=O)[O-])c1 (stereo not drawn) | 24.8
5 | COc1ccc([C@H]2CC(=O)C=C(c3cccc(Br)c3)C2)cc1 | 8.1
6 | Cc1ccc(S(=O)(=O)N2CCN(CC(=O)N/N=C/c3ccc(Br)s3)CC2)cc1 | -0.836
7 | Cc1nn(C(C)C(=O)c2cccc(Cl)c2)c(C)c1[N+](=O)[O-] (stereo not drawn) | 7
8 | O=C(NNC(=S)Nc1ccccc1)c1ccco1 | -9.43
9 | Cc1ccc(N(C(=O)c2cccs2)C2C=CS(=O)(=O)C2)cc1 (stereo not drawn) | 1.18
10 | CCOC12CC(C)(C)CC(C)(CC3=C1C(=O)CC(C)(C)C3)C2 (stereo not drawn) | 8.46
11 | COc1ccc(CNC(=O)[C@@H](NC(=O)C2CCN(C(=O)[C@@H](N)CC(C)C)CC2)C(C)C)cc1 | 17.5
12 | O=C1CN(C(=O)c2ccccc2[N+](=O)[O-])C(c2ccccc2)c2cc(Br)ccc2N1 (stereo not drawn) | -16
13 | CCn1c(SCC(=O)N2CC(C)OC(C)C2)nc2c([nH]c3ccccc32)c1=O (stereo not drawn) | 11.4
14 | O=C(CC[NH+]1CCCCC1)c1ccccc1.[Cl-] | 1.28
15 | COc1ccc(CCCc2n[nH]c(=S)n2C)cc1C | 11.8
16 | COc1cc(NC(C)CCc2ccccc2)cc(OC)c1OC (stereo not drawn) | 18
17 | CCc1noc(C)c1C(=O)N(C)CC(=O)Nc1ccc(Cl)c(Cl)c1 | 9.03
18 | Cc1cc(C(=O)COc2ccccc2[N+](=O)[O-])c(C)n1-c1cccc(S(=O)(=O)N2CCOCC2)c1 | 2.81
19 | Cc1ccc(N(C)S(=O)(=O)c2cc(-c3cnc(C4CC4)o3)ccc2C)cc1 | 12.9
20 | CCOc1cc(/C=C2/C(=O)ON=C2C)ccc1OCc1ccccc1F | 16.4
21 | O=C(O)c1ccccc1-c1ccccc1C(=O)Nc1nc2ccccc2s1 | 14.9
22 | Cc1ccc(S(=O)(=O)N2CCCCC2CCNC(=O)C(=O)NCCc2ccco2)cc1 (stereo not drawn) | 10.5
23 | Cc1ccc(CNC(=O)C23CN(Cc4ccccc4)CC2C(c2ccc([N+](=O)[O-])cc2)=NO3)cc1 (stereo not drawn) | -12.1
24 | CCOc1ccccc1NC(=S)N1CCN(c2ccc(OC)cc2)CC1 | 14.9
25 | CN(CC(=O)Nc1ccc(Cl)cc1)C(=O)c1cccc(S(=O)(=O)N2CCN(Cc3ccccc3)CC2)c1 | 12.9
26 | Cc1coc2cc3oc(=O)c(CC(=O)N4C[C@H]5C[C@@H](C4)c4cccc(=O)n4C5)c(C)c3cc12 | 4
27 | CC(C)Nc1nnc(SCC(=O)c2c[nH]c3ccccc23)s1 | 8.65

Row | Compound | hERG current change (%, negative = inhibition) at 1uM [%]
28 | COC(=O)C[C@H]1c2cc(F)ccc2S(=O)(=O)N1Cc1ccccc1OC | 10.4
29 | Cn1c(=O)cc(OCCCC(=O)N2CCC3(CC2)OCCO3)c2ccccc21 | 11
30 | Cc1ccc(NC(=O)CNc2ccc(OC(C)C)cc2)cc1 | 12.5
31 | Cc1cc(NC(=O)CSc2ncn(-c3ccccc3)n2)no1 | 13
32 | O=C(CSc1nnc(-c2cccc(S(=O)(=O)N3CCCCC3)c2)o1)NCCC1=CCCCC1 | 10.7
33 | CCCNC(=O)CCn1c(-c2ccc(C)cc2)cc(C(=O)OCC)c1C | 1.63
34 | COCCn1c(SCC(=O)NCc2ccc3c(c2)OCO3)nnc1C(C)C | 15.9
35 | C=CCn1c(-c2ccccc2)nc(=S)c2c1CCCC2 | 13.6
36 | O=C(OCc1cc(Cl)ccc1OC(F)F)c1ccc([N+](=O)[O-])o1 | 19.8
37 | O=C(c1cc2nc(C3CC3)cc(C(F)F)n2n1)N1CCOCC1 | 10.9
38 | O=C(c1ccc(F)cc1)C1CCN(C(=O)c2c(F)cccc2F)CC1 | 10.9
39 | O=C(Nc1cccc(Cl)c1)c1ccc(F)c(S(=O)(=O)NCc2ccc3c(c2)OCO3)c1 | 10.5
40 | Cc1cc(NC(=O)COc2ccc3oc4ccccc4c3c2)no1 | 2.56
41 | O=C(CN(CC1CCCO1)C(=O)CNS(=O)(=O)c1ccccc1)NCCc1ccccc1 (stereo not drawn) | 14.7
42 | CCc1cc2c(=O)c(-c3nc4ccccc4[nH]3)coc2c(CN2CCCCC2C)c1O (stereo not drawn) | 6.79
43 | Cc1cccc(OCC(O)CNC(=O)c2ccccc2C(=O)O)c1 (stereo not drawn) | 5.52
44 | Cc1ccc(-c2nc3ccccc3[nH]2)cc1NC(=O)/C=C/c1ccco1 | 9.04
45 | CCC(=O)OCn1nnc2ccccc2c1=O | 16.2
46 | COc1cc2c(cc1OC)C(c1ccc(OC)c(OC)c1OC)CC(=O)N2 (stereo not drawn) | 17.3
47 | CCOc1ncccc1C(=O)OCC(=O)Nc1ccc(C(N)=O)cc1 | 15.9
48 | Cc1oc(S(=O)(=O)N2CCOCC2)cc1C(=O)Nc1ccc(F)cc1 | -0.562
49 | Cc1cccc(C2c3[nH]c4ccccc4c3CCN2C(=O)c2ccc(=O)[nH]c2)n1 (stereo not drawn) | 23.7
50 | O=c1[nH]c(=S)[nH]c2c1C(c1cc([N+](=O)[O-])c(N3CCOCC3)cc1N1CCOCC1)O2 (stereo not drawn) | 13.9
51 | O=C(NCCc1ccccc1)C1CC(=O)N(C2CCCCC2)C1 (stereo not drawn) | 14.8
52 | COc1ccc(C2C(C(=O)N3CCN(c4ccccc4)CC3)c3ccccc3C(=O)N2C)cc1 (stereo not drawn) | -1.14
53 | CCCN(CCC)CC(C)(C)NS(=O)(=O)c1ccc(Cl)cc1 | 3.59
54 | COc1ccccc1-c1nnc(SCC(=O)N2CCCC2)o1 | 9.34
